According to PubChem BioAssay (EPA / NIEHS):
Values joined by “and” are separate entries in the source; they are usually repeats but may differ in a detail not shown here. Equal values may be shown once. Inconclusive results, whose numbers are uncertain, are shown with a selection of clear calls. Potencies beside an inconclusive call are fits to weak or partial responses and may not hold up. Active and inactive are the calls of the source. How the source made its calls: active means hit-call score of the fitted dose curve at least 0.9, where 1 is the maximum; inconclusive means response in the unintended direction; inactive means score below 0.9.

test system: zebrafish Androgen Receptor (AR), gene 100005148; test: ATG_zfAR_XSP2: Attagene TRANS-FACTORIAL Multi-Species (XSP2) HepG2 Assay for zebrafish Androgen Receptor (AR) (AID 2283825);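 further: hits raise reporter mRNA above DMSO so AC50 reflects agonist-type gain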
Experimental: ATG_XSP2_multi-species_TRANS is a cell-based, multiplexed assay created by modifying the existing Attagene TRANS-FACTORIAL system to include a panel of nuclear receptors from some or all the following species: human (Homo sapiens), mouse (Mus musculus), frog (Xenopus laevis), zebrafish (Danio rerio), chicken (Gallus gallus), and turtle (Chrysemys picta). The ECOTOX-FACTORIAL format uses HepG2, a human liver cell line, with measurements taken at 24 hours after chemical dosing in a 24-well plate. Xsp2 included 3 nM 6-alpha-fluorotestosterone and 1.5 nM norgestrel to stimulate the androgen receptor.ATG_zfAR_XSP2 is one of 29 assay components measured or calculated from the ATG_XSP2_multi-species_TRANS assay. It is designed to make measurements of mRNA induction, a form of inducible reporter, as detected with fluorescence intensity signals by Reverse transcription polymerase chain reaction (RT-PCR) and Capillary electrophoresis technology.The assay endpoint ATG_zfAR_XSP2 was analyzed in the positive analysis fitting direction relative to DMSO as the negative control and baseline of activity. Using a type of inducible reporter, measures of mRNA for gain-of-signal activity can be used to understand the reporter gene at the transcription factor-level as they relate to the gene AR. Furthermore, this assay endpoint can be referred to as a primary readout, because this assay has produced multiple assay endpoints where this one serves a reporter gene function. To generalize the intended target to other relatable targets, this assay endpoint is annotated to the nuclear receptor intended target family, where the subfamily is steroidal.
Human liver HepG2 cells are transiently transfected with multiple reporter transcription units (MRTUs) in 6-well plates using FuGene 6 reagent (Roche; 3 ml FuGene/1 mg DNA). The MRTU constructs are regulated by a cis-regulating element (promoter). […] A major difference between the CIS and TRANS system is that in CIS activities of endogenous TFs are measured, whereas the TRANS assay evaluates changes in activities of exogenous, chimeric NR-Gal4 proteins. […] At the end of 24 hour incubation, total RNA was isolated using TriZol reagent (Invitrogen). The isolated RNA is then reverse-transcribed using oligo(dT) primer and Mo-MLV reverse transcriptase (Invitrogen) with DNAse I (Ambion) treatment for 30 min. The one-tenth of the produced cDNA was amplified by PCR using Taq DNA polymerase (Invitrogen) and two reporter sequence-specific primers. The PCR products were fluorescently labeled by primer extension with 6-arboxyfluorescein (6-FAM) 5'-labeled reporter sequence-specific primer (2 min at 95 C, 20 s at 68 C and 10 min at 72 C) and these products were digested with 5U of HpaI (New England Biolabs) for 2h at 37 C. The fragments were purified using Qiaquick PCR columns (Qiagen), analyzed on an ABI 3130xL genetic analyzer (Applied Biosystems) with peak positions identified by using a set of X-rhodamine (ROX)-labeled MapMarker1000 molecular weight standards (BioVentures). The raw capillary electrophoresis data was processed using Attagraph software (Attagene).

Q: With `O=C(O)Cc1cc(I)c(Oc2ccc(O)c(I)c2)c(I)c1` as the compound, how does the AC50 read?
A: inconclusive: 1 µM

Q: What about the outcome of the same compound?
A: inactive

Q: Which AC50 does the source give for `Cc1cc(=O)oc2cc(N(C)C)ccc12` here?
A: inconclusive: 27.9 µM and inconclusive: 38.4 µM

Q: With `O=c1c(O)c(-c2ccc(O)cc2)oc2cc(O)cc(O)c12` as the compound, how does the AC50 read?
A: inconclusive: 15 µM and inconclusive: 3.43 µM

Q: Which AC50 does the source give for `Clc1ccc(C(c2ccccc2Cl)C(Cl)Cl)cc1` (stereo not given) here?
A: inconclusive: 2.94 µM and inconclusive: 814 nM

Q: How did the AC50 turn out when `CCN(Cc1c(F)cccc1Cl)c1c([N+](=O)[O-])cc(C(F)(F)F)cc1[N+](=O)[O-]` was run?
A: inconclusive: 3.36 µM and inconclusive: 2.24 µM

Q: Which AC50 does the source give for `Clc1nc(Cl)c(Cl)c(Cl)c1Cl` here?
A: inconclusive: 5.18 µM and inconclusive: 801 nM

Q: With `C=CCc1cc(S(=O)(=O)c2ccc(O)c(CC=C)c2)ccc1O` as the compound, how does the AC50 read?
A: inconclusive: 0.00914 µM

Q: With `CCCCCCCCCCCCN` as the compound, how does the AC50 read?
A: inconclusive: 30 µM and inconclusive: 53.7 µM

Q: For `O=c1cc(-c2ccccc2)oc2cc(O)cc(O)c12`, which AC50 is on record?
A: inconclusive: 100 µM and inconclusive: 67.9 µM

Q: With `CCN(CC)C(=S)SSC(=S)N(CC)CC` as the compound, how does the AC50 read?
A: inconclusive: 24.2 µM

Q: Which AC50 does the source give for `CC(C)(C)c1cc(O)c(C(C)(C)C)cc1O` here?
A: inconclusive: 100 µM

Q: `O=C(c1ccc(O)cc1)c1ccc(O)cc1O` was tested. Which AC50 did it give?
A: inconclusive: 10 µM

Q: How did the AC50 turn out when `C=CCOC(Cn1ccnc1)c1ccc(Cl)cc1Cl` (stereo not given) was run?
A: inconclusive: 23.8 µM

Q: Which AC50 does the source give for `OCc1cccc(Oc2ccccc2)c1` here?
A: inconclusive: 100 µM and inconclusive: 51.1 µM

Q: How did the AC50 turn out when `Oc1ccc2c(c1)-c1ccccc1C2` was run?
A: inconclusive: 26.1 µM and inconclusive: 20.4 µM

Q: For `Oc1ccccc1Cc1ccccc1O`, which AC50 is on record?
A: inconclusive: 32 µM and inconclusive: 27.4 µM

Q: With `CCCCC(CC)CN1C(=O)C2C3C=CC(C3)C2C1=O` (stereo not given) as the compound, how does the AC50 read?
A: inconclusive: 0.00914 µM

Q: For `CC(=O)C(C)=CC1C(C)=CCCC1(C)C` (stereo not given), which AC50 is on record?
A: inconclusive: 19.8 µM and inconclusive: 28.9 µM

Q: With `CC(C)(C)NC(=O)[C@H]1CC[C@H]2[C@@H]3CC[C@H]4NC(=O)C=C[C@]4(C)[C@H]3CC[C@]12C` as the compound, how does the AC50 read?
A: inconclusive: 0.00914 µM
